Data reported in paper PMC12820563, “FoxP3 forms a head-to-head dimer in vivo and stabilizes its multimerization on adjacent microsatellites”.
The other results are listed elsewhere or left out.

Biological target: T1, MBP-FoxP1dN (Mus musculus, UniProt P58462 326-579)
T1 sequence: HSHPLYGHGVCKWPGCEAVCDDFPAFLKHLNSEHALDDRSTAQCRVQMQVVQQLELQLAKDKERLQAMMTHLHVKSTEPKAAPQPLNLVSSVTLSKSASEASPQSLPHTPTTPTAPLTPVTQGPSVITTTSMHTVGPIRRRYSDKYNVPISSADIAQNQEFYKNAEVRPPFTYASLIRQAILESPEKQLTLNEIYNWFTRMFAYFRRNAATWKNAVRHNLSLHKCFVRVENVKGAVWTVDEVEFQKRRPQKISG
Experiment: PD-seq (MBP pull-down with sequencing); 20 mM Tris-HCl pH 7.5, 100 mM NaCl, 1.5 mM MgCl2, 0.4 uM protein, 0.1 uM dsDNA library, 30 min, room temperature, amylose pull-down; high values mean tight binding
Conditions: protein: recombinant; tags: His6-MBP; chain copies: 2; dsDNA, one strand shown
Summary of the method: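 A fragment of mouse FoxP3 or FoxP1 without its N-terminus, carrying a His6-MBP tag and produced in E. coli, was combined at 0.4 µM with a 0.1 µM degenerate double-stranded DNA library filled in with Klenow. The mixture sat for 30 min at room temperature in Tris pH 7.5 buffer containing NaCl and MgCl2. Protein–DNA complexes were captured on amylose resin, washed three times, and the DNA was freed with proteinase K, barcoded by PCR and sequenced on Illumina. Binding is expressed as reads-per-million enrichment of pull-down over input, with replicates pooled.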

Sequence | binding signal
GATGATTGTTCTCCCAGCTGATGAATTTAACGGATCGAGTAAACAAATTTTCCTAATCTTTCTGTTCAAGCGCCATCTAC | 0.828 RPM ratio (pull-down/input)
GATGATTGTTCTCCCAGCTGATGAATTTGTAGCGTCGAGTAAACAAATTTTCCTAATCTTTCTGTTCAAGCGCCATCTAC | 0.985 RPM ratio (pull-down/input)
GATGATTGTTCTCCCAGCTGATGAATTAGTAAGGTCGAGTAAACAAATTTTCCTAATCTTTCTGTTCAAGCGCCATCTAC | 0.892 RPM ratio (pull-down/input)
GATGATTGTTCTCCCAGCTGATGAATTTTCGCCTTCGAGTAAACAAATTTTCCTAATCTTTCTGTTCAAGCGCCATCTAC | 0.933 RPM ratio (pull-down/input)
GATGATTGTTCTCCCAGCTGATGAATTAGTTCGATCGAGTAAACAAATTTTCCTAATCTTTCTGTTCAAGCGCCATCTAC | 0.964 RPM ratio (pull-down/input)
GATGATTGTTCTCCCAGCTGATGAATTACCTCCATCGAGTAAACAAATTTTCCTAATCTTTCTGTTCAAGCGCCATCTAC | 0.936 RPM ratio (pull-down/input)
GATGATTGTTCTCCCAGCTGATGAATTGCCCGATTCGAGTAAACAAATTTTCCTAATCTTTCTGTTCAAGCGCCATCTAC | 0.947 RPM ratio (pull-down/input)
GATGATTGTTCTCCCAGCTGATGAATTTTACTATTCGAGTAAACAAATTTTCCTAATCTTTCTGTTCAAGCGCCATCTAC | 0.945 RPM ratio (pull-down/input)
GATGATTGTTCTCCCAGCTGATGAATTCCCATCATCGAGTAAACAAATTTTCCTAATCTTTCTGTTCAAGCGCCATCTAC | 0.937 RPM ratio (pull-down/input)
GATGATTGTTCTCCCAGCTGATGAATTGTGACTCTCGAGTAAACAAATTTTCCTAATCTTTCTGTTCAAGCGCCATCTAC | 1.04 RPM ratio (pull-down/input)
GATGATTGTTCTCCCAGCTGATGAATTTCTCATTTCGAGTAAACAAATTTTCCTAATCTTTCTGTTCAAGCGCCATCTAC | 0.877 RPM ratio (pull-down/input)
GATGATTGTTCTCCCAGCTGATGAATTACTTAACTCGAGTAAACAAATTTTCCTAATCTTTCTGTTCAAGCGCCATCTAC | 1.12 RPM ratio (pull-down/input)
GATGATTGTTCTCCCAGCTGATGAATTTCGAAACTCGAGTAAACAAATTTTCCTAATCTTTCTGTTCAAGCGCCATCTAC | 0.842 RPM ratio (pull-down/input)
GATGATTGTTCTCCCAGCTGATGAATTGCGCCCCTCGAGTAAACAAATTTTCCTAATCTTTCTGTTCAAGCGCCATCTAC | 0.966 RPM ratio (pull-down/input)
GATGATTGTTCTCCCAGCTGATGAATTGGAGGGGTCGAGTAAACAAATTTTCCTAATCTTTCTGTTCAAGCGCCATCTAC | 0.734 RPM ratio (pull-down/input)
GATGATTGTTCTCCCAGCTGATGAATTTTCGTGGTCGAGTAAACAAATTTTCCTAATCTTTCTGTTCAAGCGCCATCTAC | 0.888 RPM ratio (pull-down/input)

Sequence | binding signal
GATGATTGTTCTCCCAGCTGATGAATTACCGCTTTCGAGTAAACAAATTTTCCTAATCTTTCTGTTCAAGCGCCATCTAC | 1.09 RPM ratio (pull-down/input)
GATGATTGTTCTCCCAGCTGATGAATTGATACTGTCGAGTAAACAAATTTTCCTAATCTTTCTGTTCAAGCGCCATCTAC | 1.13 RPM ratio (pull-down/input)
GATGATTGTTCTCCCAGCTGATGAATTCCCCAAGTCGAGTAAACAAATTTTCCTAATCTTTCTGTTCAAGCGCCATCTAC | 0.788 RPM ratio (pull-down/input)
GATGATTGTTCTCCCAGCTGATGAATTCTAATAGTCGAGTAAACAAATTTTCCTAATCTTTCTGTTCAAGCGCCATCTAC | 0.905 RPM ratio (pull-down/input)
GATGATTGTTCTCCCAGCTGATGAATTCTGGCGATCGAGTAAACAAATTTTCCTAATCTTTCTGTTCAAGCGCCATCTAC | 0.805 RPM ratio (pull-down/input)
GATGATTGTTCTCCCAGCTGATGAATTTCTCTTATCGAGTAAACAAATTTTCCTAATCTTTCTGTTCAAGCGCCATCTAC | 0.952 RPM ratio (pull-down/input)
GATGATTGTTCTCCCAGCTGATGAATTAAAAGGATCGAGTAAACAAATTTTCCTAATCTTTCTGTTCAAGCGCCATCTAC | 0.837 RPM ratio (pull-down/input)
GATGATTGTTCTCCCAGCTGATGAATTCTGCGGTTCGAGTAAACAAATTTTCCTAATCTTTCTGTTCAAGCGCCATCTAC | 0.783 RPM ratio (pull-down/input)
GATGATTGTTCTCCCAGCTGATGAATTAGTGAGTTCGAGTAAACAAATTTTCCTAATCTTTCTGTTCAAGCGCCATCTAC | 0.965 RPM ratio (pull-down/input)
GATGATTGTTCTCCCAGCTGATGAATTGTTCATCTCGAGTAAACAAATTTTCCTAATCTTTCTGTTCAAGCGCCATCTAC | 1.13 RPM ratio (pull-down/input)
GATGATTGTTCTCCCAGCTGATGAATTTAAATAATCGAGTAAACAAATTTTCCTAATCTTTCTGTTCAAGCGCCATCTAC | 1.44 RPM ratio (pull-down/input)
GATGATTGTTCTCCCAGCTGATGAATTATCGGTGTCGAGTAAACAAATTTTCCTAATCTTTCTGTTCAAGCGCCATCTAC | 1.09 RPM ratio (pull-down/input)
GATGATTGTTCTCCCAGCTGATGAATTGTACACTTCGAGTAAACAAATTTTCCTAATCTTTCTGTTCAAGCGCCATCTAC | 1.23 RPM ratio (pull-down/input)
GATGATTGTTCTCCCAGCTGATGAATTCGTTTCGTCGAGTAAACAAATTTTCCTAATCTTTCTGTTCAAGCGCCATCTAC | 0.895 RPM ratio (pull-down/input)
GATGATTGTTCTCCCAGCTGATGAATTTACTGAATCGAGTAAACAAATTTTCCTAATCTTTCTGTTCAAGCGCCATCTAC | 1.28 RPM ratio (pull-down/input)
